“And” between values parts separate entries of the source, which are not always exact repeats. Equal values may be shown once.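 The compound was tested at five concentrations on cells cultured in 96-well plates, with a 48-hour exposure period. GI50 is the concentration that inhibits growth by half. The concentration for full growth arrest is given as TGI.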 Peptide text beside a SMILES is read from it. * marks the point of attachment. Bn = c1ccc(C*)cc1
tested on: NCI-H322M lung; assay: NCI anticancer screen, dose series, 48 h

| Structure (SMILES) | TGI | GI50 [µM] |
| --- | --- | --- |
| O=C1C(=O)N(c2cc(Cl)ccc2Cl)C(=O)C(=O)C1c1nc2ccccc2o1 | > 100 µM |  |
| CCOC(=O)[C@@H]1ON2O[C@@H](OC3CCCC3(c3ccccc3)c3ccccc3)C[C@H]3OC(=O)[C@@H]1C32 (stereo not given in full) | > 100 µM |  |
| O=C(O)c1c2c(cc3c1CC1(Cc4ccccc4C1=O)C3)CCC2 (stereo not given) | > 100 µM |  |
| CC(C)C1=C2CCC3(C)C(CCC4C5C6OCC5(CCC6(C)C)CCC43C)C2(C)CC1 (stereo not given) | > 100 µM |  |
| OC1(c2ccc(Cl)cc2)c2ccc(CN3CCCC3)cc2C2=NCCN21 (stereo not given) | 27.8 µM |  |
| O=C1CSC(c2ccc(-c3nc4ccccc4s3)cc2)=N1 | 73.9 µM | 13.2 |
| C=C(C)[C@@]1(O[Si](C)(C)C)CCCC[C@@H]1CC(Sc1ccccc1)Sc1ccccc1 | 33 µM |  |
| COC(=O)c1cc2c(cc1CC(Cc1ccc3c(c1)CCC3)C(=O)OC)CCC2 (stereo not given) | > 100 µM |  |
| CC(C)(C)OC(=O)C1C(=O)NC(=O)CC1C(COCc1ccccc1)OCc1ccccc1 (stereo not given) | 87 µM |  |
| Clc1ccc(N=CNc2ccc(-c3nc4ccccc4o3)cc2)cc1 | 83.1 µM | 28.7 |
| C[C@]12CC[C@H](O)C=C1CC[C@@H]1[C@@H]2CC[C@]2(C)C(c3ccc(=O)oc3)CC[C@]12O (stereo not given in full) | 0.0249 µM |  |
| COc1cc(C(=O)N2CCc3c([nH]c4c([N+](=O)[O-])c(OC)ccc34)C2C)cc(OC)c1OC (stereo not given) | > 100 µM |  |
| O=C(CCCN1CCC2(CC1)C(=NC1CCCCC1)NC(=O)N2c1ccccc1)c1ccc(F)cc1 | 50.9 µM |  |
| Oc1ccc(Br)cc1C=Nc1ccc(N=Cc2cc(Br)ccc2O)cc1 | > 100 µM |  |
| COC(=O)C(CC(C)C)NC(=O)C(N)Cc1ccc(OCc2ccccc2)cc1 (stereo not given) (H-Tyr(Bn)-Leu-OMe; configuration not given here) | > 10 µM |  |
| N#Cc1ccc(OC(=O)Nc2ccc(Cl)c(Cl)c2)cc1 | 58.6 µM | 6.24 |
| c1ccc(C2=Nn3c(CCCCCCCCc4nnc5n4N=C(c4ccccc4)CS5)nnc3SC2)cc1 | > 100 µM |  |
| COC(=O)[C@H](Cc1ccccc1)NC(=O)c1ccc(CNC(=O)/C=C/c2cccc(Oc3ccccc3)c2)cc1 | > 100 µM |  |
| Cc1ccc(S(=O)(=O)NC(=O)NNc2ccc(F)cc2)cc1 | > 100 µM |  |
| [F][Sn]([F])([c]1ccccc1)[c]1ccccc1 | 3.56 µM | 1.75 |

| Structure (SMILES) | TGI | GI50 [µM] |
| --- | --- | --- |
| CC(=O)OCCOCNC(=S)N/N=C/c1ccc(Br)s1 | > 100 µM |  |
| CN(C)P(=O)(Oc1occc1C(O)Cc1ccccc1)N(C)C (stereo not given) | > 100 µM |  |
| CCCCN(CCCC)C(=C(C(Cl)=C(Cl)Cl)[N+](=O)[O-])N(CCCC)CCCC | > 100 µM |  |
| CCOc1ccccc1NC(=O)C(C#N)C1=C(Cl)C(=O)c2ccccc2C1=O (stereo not given) | 3 µM and 3.22 µM |  |
| CC12CC1C(c1cccc([N+](=O)[O-])c1)(c1cccc([N+](=O)[O-])c1)N=N2 (stereo not given) | > 100 µM |  |
| N#CCCN(CCC#N)c1ccc(/C=C2\SC(=S)NC2=O)cc1Br | > 100 µM |  |
| Cc1c2ccncc2c(C)c2c1[nH]c1ccccc12 | 2.4 µM |  |
| COc1cc2c(c(O)c1O)-c1ccc(OC)c(=O)cc1C(NC(C)=O)CC2 (stereo not given) | > 87.1 µM |  |
| O=C(O)c1ccc2c(c1)CC1(C2)Cc2cc3c(cc2C1=O)CCC3 (stereo not given) | > 100 µM |  |
| COC(=O)/C(=C\c1ccc(N(CCC#N)CCC#N)cc1)NC(=O)c1cc([N+](=O)[O-])ccc1Cl | > 100 µM |  |
| Cc1c(C#N)c(N)n(C2OCC(O)C(O)C2O)c(=S)c1C#N (stereo not given) | > 100 µM |  |
| COC(=O)CCC1=C(CC(=O)OC)C(C)=N/C1=C\c1[nH]c(-c2ccc[nH]2)cc1OC | 25.3 µM | 10.5 |
| CC(C)(C)OC(=O)N1N=NC2C1C1CC(OCc3ccccc3)(OCc3ccccc3)C2O1 (stereo not given) | > 100 µM |  |
| NS(=O)(=O)c1ccc(NC(NC(=O)C(C(F)(F)F)C(F)(F)F)(C(F)(F)F)C(F)(F)F)cc1 | > 100 µM |  |
| COc1ccc2c(Oc3ccc(NC(=O)c4c(C)n(CC(C)(C)O)n(-c5ccccc5)c4=O)nc3)ccnc2c1 | > 100 µM | 9.09 |
| CN1COCc2cc3cc4c(cc3nc21)OCCO4 | > 100 µM |  |
| CCc1nc2cc3cccnc3c(Cl)c2[nH]c1=O | > 100 µM |  |
| O=C(O)CN(c1ccccc1)S(=O)(=O)c1ccc([N+](=O)[O-])cc1 | > 100 µM |  |
| CC1=CC(=O)C(C(O)(C(F)(F)F)C(F)(F)F)C(C)(C)C1 (stereo not given) | > 10 µM |  |

Reference: PubChem BioAssay (NCI)
